Laboratory results reported in PubChem BioAssay AID488969 (Vanderbilt High Throughput Screening Facility, 2010).
The full ranking holds about 110,000 compounds; the median of “z-score” is about -0.1, and the highest 2% start at about 2. The list shows a part of the results. Activity calls are given as the source filed them.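 How the source made its calls: active means z-score in the third read window above 3 or below -3; inactive means the rest.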

target: Metabotropic glutamate receptor 8 (Rattus norvegicus) (UniProt P70579); experiment: mGluR8 Gi/Go-coupled signaling modulation – cell-based, rat, thallium flux, HTS, primary screen (AID 488969); settings: HEK293 rat mGluR8, GIRK (G protein-gated inwardly rectifying potassium channel) thallium flux, FluoZin2; at 10 µM; stronger effect = higher value; submaximal glutamate (EC20) added with thallium
UniProt P70579, sequence (P70579 whole entry, looked up): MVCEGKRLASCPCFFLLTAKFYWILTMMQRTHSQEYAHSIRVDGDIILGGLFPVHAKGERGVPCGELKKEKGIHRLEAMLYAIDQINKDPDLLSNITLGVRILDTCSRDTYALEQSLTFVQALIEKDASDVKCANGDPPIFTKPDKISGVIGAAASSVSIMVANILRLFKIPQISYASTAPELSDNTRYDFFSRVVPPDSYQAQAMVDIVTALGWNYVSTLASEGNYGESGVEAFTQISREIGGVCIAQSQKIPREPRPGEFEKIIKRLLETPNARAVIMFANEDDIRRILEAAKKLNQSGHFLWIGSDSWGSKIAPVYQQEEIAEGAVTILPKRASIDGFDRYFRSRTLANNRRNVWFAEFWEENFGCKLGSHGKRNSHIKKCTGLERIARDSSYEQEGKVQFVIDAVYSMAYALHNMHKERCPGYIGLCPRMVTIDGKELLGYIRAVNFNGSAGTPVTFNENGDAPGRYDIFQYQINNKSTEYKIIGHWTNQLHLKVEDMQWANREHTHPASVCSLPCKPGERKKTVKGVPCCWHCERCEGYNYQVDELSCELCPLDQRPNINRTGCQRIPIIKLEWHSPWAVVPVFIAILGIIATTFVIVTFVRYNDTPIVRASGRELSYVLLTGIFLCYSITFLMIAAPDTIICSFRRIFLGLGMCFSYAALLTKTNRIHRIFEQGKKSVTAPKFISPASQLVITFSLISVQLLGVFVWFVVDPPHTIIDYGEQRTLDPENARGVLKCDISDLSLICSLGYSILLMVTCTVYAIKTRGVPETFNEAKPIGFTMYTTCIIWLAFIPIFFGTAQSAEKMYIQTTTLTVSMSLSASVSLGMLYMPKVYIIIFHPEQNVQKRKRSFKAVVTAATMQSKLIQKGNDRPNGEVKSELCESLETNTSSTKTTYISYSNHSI

Compound	z-score
O=C(N/N=C/c1cccc(Oc2ccccc2)c1)c1ccccc1Br	0.0241
Cc1cc(C)c([N+](=O)[O-])cc1-c1ccc(/C=N/c2c(-c3ccco3)nc3ccccn23)o1	-0.167
COC(=O)c1cc2n3ccccc3c(C)c(-c3ccccc3)c-2c1C(=O)OC	-0.76
CCOC(=O)N1CCN(CCC(=O)Nc2ccc(OC)cc2OC)CC1	0.353
COc1ccc(-c2csc(-n3ncc(-c4cccs4)c3N)n2)cc1	-0.78
O=C(COC(=O)CC1c2ccccc2CCN1S(=O)(=O)c1ccc(F)cc1)Nc1ccccc1 (stereo not given)	-0.306
C/C(=N\NC(=O)c1ccccc1)c1nc2ccccc2n1C	active: 3.71
COc1ccccc1CNC(=O)C(=O)NCC1OCCN1C(=O)c1cccs1 (stereo not given)	0.189
COCCCN1C(=O)C(=O)/C(=C(/O)c2ccc(OC(C)C)cc2)C1c1ccc(O)c(OC)c1 (stereo not given)	-0.905
O=C(NCCN1CCOCC1)c1cc2cc(Br)ccc2oc1=O	0.0205
CCOc1ccc(-c2noc(COC)n2)cc1OC	-0.328
CN(C)c1ccc(NC(=O)/C=C/c2ccccc2Cl)cc1	-0.0538
Fc1ccc(C2NCCn3cccc32)cc1 (stereo not given)	0.135
Cc1ccc(C(O)c2ccncc2)cc1 (stereo not given)	-0.224
COc1ccc(CCN2C(=O)NC(NS(=O)(=O)c3ccc(N)cc3)(C(F)(F)F)C2=O)cc1OC (stereo not given)	0.146
CCCCNC1CCS(=O)(=O)C1 (stereo not given)	-0.274
CCOC(=O)n1c(SCC(=O)N(CC)CC)nc2ccccc21	-0.422
O=C(Cc1n[nH]c(=O)[nH]c1=O)N/N=C/c1ccccc1O	-0.173
Cc1c(N2C(=O)CSC23C(=O)Nc2ccccc23)c(=O)n(-c2ccccc2)n1C (stereo not given)	-1.33
Cc1ccc(-c2nnc(N(C)C(=O)c3cccnc3)s2)cn1	-0.196
C/C(=N\NC(=O)C1CC1c1ccccc1)c1cccc([N+](=O)[O-])c1 (stereo not given)	-0.468
O=C(CSc1n[nH]c(-c2ccc(S(=O)(=O)N3CCCCC3)cc2)n1)Nc1nccs1	0.951
CC(C)(C)c1ccc(/C=C/C(=O)N2CCc3ccccc3C2)cc1	0.00531
c1ccc(-c2nc(Sc3ncnc4c3cnn4-c3ccccc3)n[nH]2)cc1	-0.225

Compound	z-score
COc1ccc2c(c1)-c1nc(NC(=O)c3cccs3)sc1CC2	-0.897
CC1CCN(C(=O)c2cc(Cl)nc3ccccc23)CC1	-0.231
Cc1ccc2c(c1)CCCN2C(=O)c1c(C)noc1C	-0.139
O=C(Nc1cccc2c1CCCC2)C1CCN(C(=O)NC2CCCCC2)CC1	-0.522
CN(C)C(=O)c1ccccc1Sc1ccc(Cl)cc1Cl	-0.793
O=C(COc1ncnc2c1cnn2-c1ccccc1)Nc1ccc(S(=O)(=O)N2CCCCC2)cc1	-0.0899
O=C(NNc1cc(N2CCOCC2)nc(N2CCOCC2)n1)c1ccc(Cl)c(Cl)c1	0.14
O=C(Nc1ccccc1)Nc1nnc(CSCc2ccccc2Cl)s1	0.0284
CC(C)Cc1nnc(NC(=O)Cc2ccccc2[N+](=O)[O-])s1	0.0608
CCc1cccc(CC)c1NC(=O)C1CN(S(=O)(=O)c2ccccc2)CCN1S(=O)(=O)c1ccccc1 (stereo not given)	-0.125
CCCn1nc2cc(C(=O)NC3CCCc4ccccc43)ccc2c1OCC (stereo not given)	-0.533
O=C(OCCCN=C1NS(=O)(=O)c2ccccc21)C1CC(=O)N(c2ccc(Cl)cc2)C1 (stereo not given)	-0.412
COc1ccc(CNC(=S)N/N=C/c2ccncc2)cc1	-0.111
CN1CCN(CCCNC(=O)c2ccc(CS(=O)(=O)c3ccc(Br)cc3)o2)CC1	-0.0805
O=C(Nc1ccc2oc(-c3ccccc3)nc2c1)c1ccncc1	-0.137
COc1ccc(Oc2nccc(-c3ccccc3)c2C#N)cc1	-0.13
Cc1ccc(CN2CCN(/N=C/c3ccc(C(F)(F)F)cc3)CC2)cc1	0.225
O=C(Cn1c(=O)n(CC2CCCO2)c(=O)c2ccccc21)c1ccccc1 (stereo not given)	-1.04
COC(=O)Cc1cc(=O)n2[nH]c(C(F)(F)F)nc2n1	-0.024
CCn1c(SCc2cccnc2)nnc1-c1c[nH]c2ccccc12	0.0713
Cc1ccc(-c2noc(CCC(=O)NCC3CCCO3)n2)cc1 (stereo not given)	-0.187
C=CCNC(=S)NNC(=O)c1cccn(Cc2ccc(Cl)cc2)c1=O	-0.127
O=C1c2ccccc2C(=O)N1CCCCCc1nc(-c2ccccc2)no1	1.38
Cc1cc2ncn(S(=O)(=O)c3ccc(S(=O)(=O)N4CCOCC4)cc3)c2cc1C	0.0555

Compound	z-score
Cc1cc2nnc(SCC(=O)N3CCN(c4ccccc4)CC3)n2c(N)n1	-0.994
Cn1nc(-c2ccc(Cl)cc2)c2cc(C(=O)N3CCN(c4ccccn4)CC3)sc21	-0.534
NC(=S)N/N=C/c1ccc(-c2cc(Cl)cc(Cl)c2)o1	0.987
CCNc1nc(NCC)nc(OCCOC(=O)COc2ccc(Cl)cc2Cl)n1	-0.468
COc1cc(OC)nc(S(C)(=O)=O)n1	-0.0178
COc1ccc(CCNC(=O)CN2C(=O)c3ccccc3S2(=O)=O)cc1OC	-0.716
CCN1CCN(Cc2ccc(OC)c(OCc3ccccc3)c2)CC1	0.316
O=C(NC1CC2CCC(C1)N2C(=O)NCc1ccccc1)NC12CC3CC(CC(C3)C1)C2 (stereo not given)	-0.235
Cc1ccc(C)c(NC(=O)C2C3CCCC2C3c2ccccc2)c1 (stereo not given)	0.174
O=C(CCC(=O)NC1CC1)Nc1nnc(C2CCCCC2)s1	-0.164
Cc1ccc(CC2(O)CC(C)N(C)CC2C)c(C)c1 (stereo not given)	-0.292
COC(=O)c1cc(C(=O)Nc2ccc(C)cn2)cc([N+](=O)[O-])c1	0.462
CCOc1ccc(OCC)c(NC(=O)C2CCN(c3ncccn3)CC2)c1	0.239
c1coc(Cn2c(SCc3nc4ccccc4[nH]3)nnc2-c2cccs2)c1	-0.59
O=C(O)/C=C\C(=O)Nc1ccc(Oc2ccccc2)cc1	-0.219
CN(C)CCCN(C(=O)c1sc2ccccc2c1Cl)c1nc2ccc(F)cc2s1	-0.181
O=C(c1cccc(F)c1)N1CCCN(C(=O)c2cccc(F)c2)CC1	0.0199
CCOc1ccc(NC(=O)C2CCC(CNc3c(N4CCOCC4)c(=O)c3=O)CC2)cc1 (stereo not given)	-0.502
Cc1cc(=O)oc(C)c1C(=O)NCC(C)NC(=O)c1c(C)cc(=O)oc1C (stereo not given)	-0.129
Cc1ccc2nc(N(CCN(C)C)C(=O)/C=C/c3cccs3)sc2c1	-0.426
CC(=O)CSc1nnc(NC(=O)CCc2ccccc2)s1	0.11
CCN(CC)C(=O)C(=O)N/N=C/c1cccc(Br)c1	-0.0265
